Source: paper PMC2191977 (The Journal of Experimental Medicine, 1995)

Assays:
B7 L179V = target: T1, B7 L179V (mouse, UniProt Q00609 38-306, L179V); test: flow cytometry on cells
T1 sequence (looked up): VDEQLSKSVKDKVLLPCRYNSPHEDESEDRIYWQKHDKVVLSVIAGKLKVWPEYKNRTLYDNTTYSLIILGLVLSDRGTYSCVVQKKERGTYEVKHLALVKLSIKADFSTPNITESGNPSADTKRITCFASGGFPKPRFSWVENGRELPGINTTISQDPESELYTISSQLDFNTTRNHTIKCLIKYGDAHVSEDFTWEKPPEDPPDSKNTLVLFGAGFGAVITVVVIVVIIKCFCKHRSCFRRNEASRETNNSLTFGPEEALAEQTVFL

B7 QD/LE (Q194L, D195E) = target: T2, B7 QD/LE (Q194L, D195E) (mouse, UniProt Q00609 38-306, Q194D195>LE); test: flow cytometry on cells
T2 sequence (looked up): T1 sequence (looked up) with V142L, Q157L, D158E

B1: CTLA4Ig (Fc fusion)
chain: not shown
% wild-type B7 binding (normalised to anti-B7 mAb 10.16A.1) (B7 L179V): 40% | MF (mean fluorescence, control subtracted) (B7 L179V): 274 MF | % wild-type B7 binding (normalised to anti-B7 mAb 10.16A.1) (B7 QD/LE (Q194L, D195E)): 26% | MF (mean fluorescence, control subtracted) (B7 QD/LE (Q194L, D195E)): 103 MF

Substitutions are numbered along the chain they refer to.
